# From the supplement of paper PMC4166925
# ± gives the standard deviation of the averaged measurements. Over roughly 33,000 sequences, “E-score (dimensionless, -0.5 to 0.5)” has its median near -0.046; the highest 2% begin near 0.36. This is one part of the list.
# Test system: T1, SpTbr T-box DNA-binding domain (GST fusion)
# T1 sequence: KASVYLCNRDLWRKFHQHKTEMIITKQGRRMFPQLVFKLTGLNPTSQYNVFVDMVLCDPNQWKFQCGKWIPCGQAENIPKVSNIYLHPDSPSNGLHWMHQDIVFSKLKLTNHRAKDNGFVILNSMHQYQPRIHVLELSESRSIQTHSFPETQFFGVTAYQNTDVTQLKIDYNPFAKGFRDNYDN
# Test: PBM E-score of 8-mer (E-score (dimensionless, -0.5 to 0.5)); Tbr is Tbrain of the sea star Patiria miniata (Pm) or the sea urchin Strongylocentrotus purpuratus (Sp); higher = stronger binding preference; most listed sequences are background and not binding sites
# Conditions: the construct has about 5 more residues each side
# Description: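 Universal protein-binding microarray (Agilent AMADID 016060, 60-bp probes with a 35-bp variable region) incubated with 200 nM GST-fused Strongylocentrotus purpuratus Tbr T-box DNA-binding domain (residues 362-554) in PBS pH 7.5. Scored for every ungapped 8-mer (given with its reverse complement) as E-score (range -0.5 to 0.5; >0.45 counts as bound) and Z-score of median probe intensity. Two replicate arrays (datasets 1 and 2).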
# 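Also: protein at 200 nM in PBS on universal double-stranded arrays.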
row,Sequence,PBM E-score of 8-mer
1,CAGTTTAG,0.00658 ± 0.011
2,CAAACCTC,-0.253 ± 0.03
3,CCCTCGTC,-0.04 ± 0.071
4,CGTCCTGA,-0.155 ± 0.016
5,CTCAAAAC,0.0161 ± 0.055
6,CAAAACCA,-0.0638 ± 0.0088
7,GAATCTTA,-0.197 ± 0.05
8,ATAAGTGC,0.21 ± 0.023
9,GATTCACA,0.392 ± 0.0093
10,AAAACCTG,0.102 ± 0.046
11,GTCTCAAA,-0.197 ± 0.14
12,GTGGCTGA,0.139 ± 0.017
13,GTAGGGAA,-0.166 ± 0.0089
14,GTCTTACA,-0.123 ± 0.0059
15,ACAGCTTC,0.208 ± 0.017
16,CAAACACC,0.345 ± 0.0091
17,ATTCCGGC,0.0517 ± 0.016
18,CAATCTGC,-0.036 ± 0.042
19,GATGAGTA,-0.108 ± 0.016
20,CAGCGTCC,-0.166 ± 0.011
21,CTCTAAGA,-0.285 ± 0.036
22,GACTCAAA,-0.212 ± 0.006
23,AACGCTCA,0.0418 ± 0.0019
24,CCACTTAG,-0.0238 ± 0.042
25,CCTGCCCC,0.00261 ± 0.0042

row,Sequence,PBM E-score of 8-mer
1,CTATTATC,-0.0418 ± 0.019
2,AGTCACGA,0.152 ± 0.0034
3,CGTTACTA,0.0564 ± 0.002
4,CCGGAGGC,-0.172 ± 0.0022
5,CTCTCACA,0.3477 ± 0.0025
6,GTGTGCCA,0.209 ± 0.039
7,CTGTGAGA,0.292 ± 0.0058
8,AAGCGCTC,-0.0481 ± 0.079
9,ATTCCTAC,-0.289 ± 0.015
10,AAGTCAAT,-0.156 ± 0.078
11,ATTATCCG,-0.0997 ± 0.05
12,AAGACCGA,-0.134 ± 0.007
13,AGCGCTAT,0.0755 ± 0.028
14,CGTTCTGA,-0.248 ± 0.019
15,GCAGTTCA,-0.0433 ± 0.15
16,AGAACTCG,0.113 ± 0.032
17,CAGGTTTC,-0.0682 ± 0.024
18,CCGGGTTA,-0.166 ± 0.042
19,CTCATTCC,0.00231 ± 0.058
20,ACATACCA,0.106 ± 0.037
21,GGTCGGGA,-0.0223 ± 0.028
22,AACGTTAT,0.0135 ± 0.06
23,ATTGCGGG,-0.168 ± 0.074
24,CCGGATCG,-0.114 ± 0.033
25,ACGTAACT,-0.0794 ± 0.013

row,Sequence,PBM E-score of 8-mer
1,AGTATTTG,-0.00803 ± 0.053
2,GATGACGC,0.236 ± 0.02
3,AGAGCAAC,-0.115 ± 0.045
4,CGCATGGC,-0.0354 ± 0.028
5,GAAAGACA,-0.142 ± 0.0068
6,CGGCAATC,0.0352 ± 0.0047
7,TAGTAACA,0.0927 ± 0.018
8,AAATTGTA,-0.163 ± 0.035
9,ACGAGTTA,0.0864 ± 0.011
10,CCCCAAGA,-0.161 ± 0.021
11,GCAGCTTA,-0.0311 ± 0.018
12,CGCTATTC,0.0952 ± 0.022
13,AATGCCTC,-0.2299 ± 0.0017
14,CAGCCGTC,-0.0313 ± 0.023
15,ATTGTATG,0.0134 ± 0.0065
16,TAATTGCA,-0.0968 ± 0.049
17,ATACCGCC,0.0935 ± 0.075
18,ATCTGGCC,-0.323 ± 0.059
19,GTCTTGTA,-0.157 ± 0.08
20,GTCTAGAC,-0.227 ± 0.049
21,CCTCCCAC,0.167 ± 0.051
22,TAATGGTA,-0.0621 ± 0.066
23,CTTATGCA,-0.106 ± 0.0025
24,GTAAGTAC,0.0781 ± 0.011
25,AGGTTCTC,0.0974 ± 0.045

row,Sequence,PBM E-score of 8-mer
1,CTTCGGCA,0.00492 ± 0.087
2,ACCAAATC,0.0574 ± 0.025
3,AGATTACC,-0.264 ± 0.051
4,CCACCCAC,0.166 ± 0.032
5,AGTGAGGC,0.168 ± 0.0085
6,GCCTGCTA,-0.00335 ± 0.0067
7,AGCACGAA,-0.0432 ± 0.027
8,TCAAACGA,-0.0189 ± 0.061
9,GACATATA,-0.234 ± 0.017
10,CATTTTAC,0.0366 ± 0.028
11,ATTCATTC,-0.192 ± 0.052
12,AGGCCCCT,-0.335 ± 0.05
13,TACTGCGA,0.141 ± 0.02
14,CACGGACA,0.1677 ± 0.00032
15,GAGACTTA,-0.152 ± 0.06
16,AGCCATAA,-0.0626 ± 0.052
17,AGACATCC,-0.203 ± 0.026
18,CTCCATGA,-0.24 ± 0.038
19,AAGCGTAA,-0.0333 ± 0.041
20,CCGTTGCA,-0.131 ± 0.064
21,ACGTGCAG,-0.0147 ± 0.021
22,CAATTGAA,-0.238 ± 0.011
23,GTTATGAA,-0.0569 ± 0.075
24,ACCTACCG,-0.0257 ± 0.0024
25,CGCTGAAG,-0.0583 ± 0.034

row,Sequence,PBM E-score of 8-mer
1,AACTCCTT,-0.11 ± 0.0082
2,GAGTCATC,-0.181 ± 0.013
3,CTGGATGC,-0.14 ± 0.091
4,ACCTCGCG,0.325 ± 0.014
5,CTCTTTGA,-0.061 ± 0.03
6,GCCACCCA,0.0264 ± 0.086
7,ATCAATTG,-0.00983 ± 0.05
8,ATGAAGGA,-0.2226 ± 0.0014
9,CCTGATGA,-0.0143 ± 0.035
10,AAGAATCG,-0.0227 ± 0.04
11,GACAACGC,0.217 ± 0.013
12,ACTTCGTA,0.0211 ± 0.065
13,AGCGTCAG,-0.0445 ± 0.1
14,ACTTACCC,0.0548 ± 0.033
15,CCCACACA,0.199 ± 0.038
16,ACGACCTG,0.0367 ± 0.035
17,TAAGCCGA,-0.145 ± 0.03
18,AAGTGAGC,0.134 ± 0.0044
19,GGGGATGA,-0.164 ± 0.0062
20,GTAAGCTA,-0.231 ± 0.081
21,CAAACAAC,-0.0156 ± 0.059
22,ATAAACCC,-0.22 ± 0.039
23,ACTTCTGA,0.0261 ± 0.032
24,ACTACCTC,-0.1643 ± 0.00054
25,ATATGAAG,0.0787 ± 0.013

row,Sequence,PBM E-score of 8-mer
1,CACTAGCC,0.0158 ± 0.04
2,ATGTGCAA,0.182 ± 0.095
3,CACAAAAA,0.0846 ± 0.057
4,AAAGTTAG,0.0626 ± 0.036
5,ATGTCGCC,0.0362 ± 0.024
6,CATACCAG,0.0148 ± 0.026
7,GCTGGTTA,-0.115 ± 0.072
8,AACAGCTC,0.2132 ± 0.00089
9,GCGCCCCA,0.0659 ± 0.033
10,TAAGTAAA,0.0493 ± 0.044
11,AGGAAATG,-0.0384 ± 0.042
12,AACCGCCT,-0.126 ± 0.019
13,ACGATTAT,0.00702 ± 0.073
14,AGCAGGTG,0.377 ± 0.00094
15,CAGTTGCG,0.255 ± 0.0065
16,AAGCTAAA,-0.0312 ± 0.054
17,ACAGTTTG,0.207 ± 0.011
18,ATTTTGAG,-0.236 ± 0.042
19,CGGTCACC,0.0651 ± 0.051
20,AGCGGGCA,-0.0395 ± 0.016
21,ACTGTACG,-0.09 ± 0.021
22,CAAGCCAG,-0.244 ± 0.0068
23,AGCCTATC,-0.168 ± 0.1
24,CAAATGGA,-0.0481 ± 0.054
25,CCGTACAA,-0.197 ± 0.0048

row,Sequence,PBM E-score of 8-mer
1,CGAGCCAG,-0.178 ± 0.036
2,ATAACGTG,0.19 ± 0.0011
3,ACACTGGT,0.124 ± 0.061
4,AATCCACC,-0.0595 ± 0.05
5,GCTCCATA,-0.315 ± 0.018
6,CGTGCTCC,-0.186 ± 0.027
7,ATTATCGG,-0.0103 ± 0.047
8,GGGAGTCA,0.032 ± 0.043
9,ACCCCGGG,-0.021 ± 0.06
10,GACAGAAC,-0.0696 ± 0.06
11,CTGCAAGA,-0.152 ± 0.095
12,ATAACCAT,-0.00221 ± 0.0059
13,ACCCCATG,-0.0417 ± 0.088
14,CAAAGAAA,-0.247 ± 0.013
15,TTCCGGAA,-0.324 ± 0.027
16,GACTGACA,0.134 ± 0.035
17,AAATCCGT,-0.0309 ± 0.033
18,GACTCTCC,-0.206 ± 0.065
19,AGAGTCCA,-0.0614 ± 0.035
20,ATTCGGTG,0.0136 ± 0.061
21,AAGCTACT,0.0134 ± 0.039
22,CTACCGGC,-0.0193 ± 0.1
